Experimental data: paper PMC9911399, “Two distinct binding modes provide the RNA-binding protein RbFox with extraordinary sequence specificity”
Substitutions are numbered along the chain they refer to; changes in the protein carry UniProt numbers. The list shows a part of the results.

B1: CCAACCA (DNA:RNA)
RNA: GGGAGACCGGAAUUCAGAUUGUCCCCAACCAUUAAAUCCCGUCGUAGCCACCA
DNA 1: CAATCTGAATTCCGGTCTCCC
DNA 2: TGGTGGCTACGACGGGATT
B2: CUACCCG (DNA:RNA)
RNA: B1 RNA with C26U, A28C, A31G
DNA 1: CAATCTGAATTCCGGTCTCCC
DNA 2: TGGTGGCTACGACGGGATT
B3: UAGUCGG (DNA:RNA)
RNA: B1 RNA with C25U, C26A, A27G, A28U, C30G, A31G
DNA 1: CAATCTGAATTCCGGTCTCCC
DNA 2: TGGTGGCTACGACGGGATT
B4: AGCCCAU (DNA:RNA)
RNA: B1 RNA with C25A, C26G, A27C, A28C, C30A, A31U
DNA 1: CAATCTGAATTCCGGTCTCCC
DNA 2: TGGTGGCTACGACGGGATT
B5: UUGUGGA (DNA:RNA)
RNA: B1 RNA with C25U, C26U, A27G, A28U, C29G, C30G
DNA 1: CAATCTGAATTCCGGTCTCCC
DNA 2: TGGTGGCTACGACGGGATT
B6: UCAAGUA (DNA:RNA)
RNA: B1 RNA with C25U, C29G, C30U
DNA 1: CAATCTGAATTCCGGTCTCCC
DNA 2: TGGTGGCTACGACGGGATT
B7: GUCUGGA (DNA:RNA)
RNA: B1 RNA with C25G, C26U, A27C, A28U, C29G, C30G
DNA 1: CAATCTGAATTCCGGTCTCCC
DNA 2: TGGTGGCTACGACGGGATT
B8: CCAACAC (DNA:RNA)
RNA: B1 RNA with C30A, A31C
DNA 1: CAATCTGAATTCCGGTCTCCC
DNA 2: TGGTGGCTACGACGGGATT
B9: CUUGGAG (DNA:RNA)
RNA: B1 RNA with C26U, A27U, A28G, C29G, C30A, A31G
DNA 1: CAATCTGAATTCCGGTCTCCC
DNA 2: TGGTGGCTACGACGGGATT
B10: GCAGGUU (DNA:RNA)
RNA: B1 RNA with C25G, A28G, C29G, C30U, A31U
DNA 1: CAATCTGAATTCCGGTCTCCC
DNA 2: TGGTGGCTACGACGGGATT
B11: CUAUGCC (DNA:RNA)
RNA: B1 RNA with C26U, A28U, C29G, A31C
DNA 1: CAATCTGAATTCCGGTCTCCC
DNA 2: TGGTGGCTACGACGGGATT
B12: ACUAGCC (DNA:RNA)
RNA: B1 RNA with C25A, A27U, C29G, A31C
DNA 1: CAATCTGAATTCCGGTCTCCC
DNA 2: TGGTGGCTACGACGGGATT
B13: ACUUUUA (DNA:RNA)
RNA: B1 RNA with C25A, A27U, A28U, C29U, C30U
DNA 1: CAATCTGAATTCCGGTCTCCC
DNA 2: TGGTGGCTACGACGGGATT
B14: GGUGGAU (DNA:RNA)
RNA: GGGAGACCGGAAUUCAGAUUGUCCGGUGGAUUUAAAUCCCGUCGUAGCCACCA
DNA 1: CAATCTGAATTCCGGTCTCCC
DNA 2: TGGTGGCTACGACGGGATT
B15: CACGAUC (DNA:RNA)
RNA: B1 RNA with C26A, A27C, A28G, C29A, C30U, A31C
DNA 1: CAATCTGAATTCCGGTCTCCC
DNA 2: TGGTGGCTACGACGGGATT
B16: CGACGUC (DNA:RNA)
RNA: B1 RNA with C26G, A28C, C29G, C30U, A31C
DNA 1: CAATCTGAATTCCGGTCTCCC
DNA 2: TGGTGGCTACGACGGGATT
B17: CUGUUGU (DNA:RNA)
RNA: B1 RNA with C26U, A27G, A28U, C29U, C30G, A31U
DNA 1: CAATCTGAATTCCGGTCTCCC
DNA 2: TGGTGGCTACGACGGGATT
B18: UCCCUGC (DNA:RNA)
RNA: B1 RNA with C25U, A27C, A28C, C29U, C30G, A31C
DNA 1: CAATCTGAATTCCGGTCTCCC
DNA 2: TGGTGGCTACGACGGGATT
B19: AACAAAC (DNA:RNA)
RNA: B1 RNA with C25A, C26A, A27C, C29A, C30A, A31C
DNA 1: CAATCTGAATTCCGGTCTCCC
DNA 2: TGGTGGCTACGACGGGATT
B20: UCCGGCC (DNA:RNA)
RNA: B1 RNA with C25U, A27C, A28G, C29G, A31C
DNA 1: CAATCTGAATTCCGGTCTCCC
DNA 2: TGGTGGCTACGACGGGATT
B21: AGCUGCC (DNA:RNA)
RNA: B14 RNA with G25A, U27C, G28U, A30C, U31C
DNA 1: CAATCTGAATTCCGGTCTCCC
DNA 2: TGGTGGCTACGACGGGATT
B22: GCGUAAC (DNA:RNA)
RNA: B14 RNA with G26C, U27G, G28U, G29A, U31C
DNA 1: CAATCTGAATTCCGGTCTCCC
DNA 2: TGGTGGCTACGACGGGATT
B23: AUGAGUA (DNA:RNA)
RNA: B1 RNA with C25A, C26U, A27G, C29G, C30U
DNA 1: CAATCTGAATTCCGGTCTCCC
DNA 2: TGGTGGCTACGACGGGATT
B24: GUACUCG (DNA:RNA)
RNA: B1 RNA with C25G, C26U, A28C, C29U, A31G
DNA 1: CAATCTGAATTCCGGTCTCCC
DNA 2: TGGTGGCTACGACGGGATT
B25: CAGCCCC (DNA:RNA)
RNA: B1 RNA with C26A, A27G, A28C, A31C
DNA 1: CAATCTGAATTCCGGTCTCCC
DNA 2: TGGTGGCTACGACGGGATT
B26: ACGACUA (DNA:RNA)
RNA: B1 RNA with C25A, A27G, C30U
DNA 1: CAATCTGAATTCCGGTCTCCC
DNA 2: TGGTGGCTACGACGGGATT
B27: GCGUAAU (DNA:RNA)
RNA: B14 RNA with G26C, U27G, G28U, G29A
DNA 1: CAATCTGAATTCCGGTCTCCC
DNA 2: TGGTGGCTACGACGGGATT
B28: UGCUACA (DNA:RNA)
RNA: B1 RNA with C25U, C26G, A27C, A28U, C29A
DNA 1: CAATCTGAATTCCGGTCTCCC
DNA 2: TGGTGGCTACGACGGGATT
B29: AGGAAAU (DNA:RNA)
RNA: B14 RNA with G25A, U27G, G28A, G29A
DNA 1: CAATCTGAATTCCGGTCTCCC
DNA 2: TGGTGGCTACGACGGGATT
B30: CUUUAGG (DNA:RNA)
RNA: B1 RNA with C26U, A27U, A28U, C29A, C30G, A31G
DNA 1: CAATCTGAATTCCGGTCTCCC
DNA 2: TGGTGGCTACGACGGGATT
B31: AUGUUGA (DNA:RNA)
RNA: B1 RNA with C25A, C26U, A27G, A28U, C29U, C30G
DNA 1: CAATCTGAATTCCGGTCTCCC
DNA 2: TGGTGGCTACGACGGGATT

These binders were tested against T1, RBFOX1 RRM RbFoxmut (Fox-RRM*) (Homo sapiens, UniProt Q9NWB1 109-208, R118D;E147R;N151S;E152T) (assay: EMSA; HiTS-Eq, 1 nM pool, 10 min; buffer printed only for the single-RNA assays: 10 mM Tris pH 7.5, 150 mM NaCl, 3.4 mM EDTA, 0.001% NP-40, 30 C). Conditions: tags: His6 N-terminal (pET28a); label: 5' 32P.
T1 sequence: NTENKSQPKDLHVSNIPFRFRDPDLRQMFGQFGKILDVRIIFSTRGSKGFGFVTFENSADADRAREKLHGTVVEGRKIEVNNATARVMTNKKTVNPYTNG
Procedure, shortened: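 Purified RbFox RRM (wild type or mutant) was equilibrated for 10 min in 50 µL with 1 nM of a 5′-radiolabelled pool of RNA with 7 randomized nucleotides, its flanks annealed to DNA oligonucleotides, across increasing protein concentrations. Free RNA was separated by 8% native PAGE, excised, reverse-transcribed, PCR-barcoded and sequenced on an Illumina HiSeq 2500. Relative association constants came from read-count changes of each variant against the control reaction, normalised to the cognate motif.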
With B1 the binding signal was 0.0995 KA relative to UGCAUGU.
With B2 the binding signal was 0.0609 KA relative to UGCAUGU.
For B3, the binding signal was 0.101 KA relative to UGCAUGU.
For B4, the binding signal was 0.0645 KA relative to UGCAUGU.
B5 was tested, and the binding signal was 0.0632 KA relative to UGCAUGU.
B6 was tested, and the binding signal was 0.141 KA relative to UGCAUGU.
B7 was tested, and the binding signal was 0.0774 KA relative to UGCAUGU.
B8 was tested, and the binding signal was 0.0711 KA relative to UGCAUGU.
For B9, the binding signal was 0.11 KA relative to UGCAUGU.
In the case of B10, the binding signal is reported as 0.0992 KA relative to UGCAUGU.
With B11 the binding signal was 0.26 KA relative to UGCAUGU.
For B12, the binding signal was 0.105 KA relative to UGCAUGU.
B13 was tested, and the binding signal was 0.139 KA relative to UGCAUGU.
In the case of B14, the binding signal is reported as 0.0712 KA relative to UGCAUGU.
B15 was tested, and the binding signal was 0.0636 KA relative to UGCAUGU.
B16 was tested, and the binding signal was 0.0705 KA relative to UGCAUGU.
In the case of B17, the binding signal is reported as 0.166 KA relative to UGCAUGU.
With B18 the binding signal was 0.127 KA relative to UGCAUGU.
B19 was tested, and the binding signal was 0.0356 KA relative to UGCAUGU.
For B20, the binding signal was 0.109 KA relative to UGCAUGU.
With B21 the binding signal was 0.202 KA relative to UGCAUGU.
For B22, the binding signal was 0.0833 KA relative to UGCAUGU.
With B23 the binding signal was 0.184 KA relative to UGCAUGU.
B24 was tested, and the binding signal was 0.0853 KA relative to UGCAUGU.
B25 was tested, and the binding signal was 0.0727 KA relative to UGCAUGU.
For B26, the binding signal was 0.0834 KA relative to UGCAUGU.
For B27, the binding signal was 0.11 KA relative to UGCAUGU.
B28 was tested, and the binding signal was 0.0945 KA relative to UGCAUGU.
For B29, the binding signal was 0.0874 KA relative to UGCAUGU.
For B30, the binding signal was 0.0837 KA relative to UGCAUGU.
With B31 the binding signal was 0.158 KA relative to UGCAUGU.
